According to PMC4336329 (PLoS ONE, 2015):
In all, about 310,000 compounds went through this assay and about 14,000 (4.5%) showed an effect of 50% or more. Effects have a minus sign here. This is one part of the list.

biological target: human ether-à-go-go-related gene (hERG) potassium channel (human, UniProt Q12809); experiment: primary screen, population patch clamp on CHO cells stably expressing hERG
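Further: peak tail current of the secondary pulse compared with the same well before compound.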

Sequence of human ether-à-go-go-related gene (hERG) potassium channel (Q12809 whole entry, looked up): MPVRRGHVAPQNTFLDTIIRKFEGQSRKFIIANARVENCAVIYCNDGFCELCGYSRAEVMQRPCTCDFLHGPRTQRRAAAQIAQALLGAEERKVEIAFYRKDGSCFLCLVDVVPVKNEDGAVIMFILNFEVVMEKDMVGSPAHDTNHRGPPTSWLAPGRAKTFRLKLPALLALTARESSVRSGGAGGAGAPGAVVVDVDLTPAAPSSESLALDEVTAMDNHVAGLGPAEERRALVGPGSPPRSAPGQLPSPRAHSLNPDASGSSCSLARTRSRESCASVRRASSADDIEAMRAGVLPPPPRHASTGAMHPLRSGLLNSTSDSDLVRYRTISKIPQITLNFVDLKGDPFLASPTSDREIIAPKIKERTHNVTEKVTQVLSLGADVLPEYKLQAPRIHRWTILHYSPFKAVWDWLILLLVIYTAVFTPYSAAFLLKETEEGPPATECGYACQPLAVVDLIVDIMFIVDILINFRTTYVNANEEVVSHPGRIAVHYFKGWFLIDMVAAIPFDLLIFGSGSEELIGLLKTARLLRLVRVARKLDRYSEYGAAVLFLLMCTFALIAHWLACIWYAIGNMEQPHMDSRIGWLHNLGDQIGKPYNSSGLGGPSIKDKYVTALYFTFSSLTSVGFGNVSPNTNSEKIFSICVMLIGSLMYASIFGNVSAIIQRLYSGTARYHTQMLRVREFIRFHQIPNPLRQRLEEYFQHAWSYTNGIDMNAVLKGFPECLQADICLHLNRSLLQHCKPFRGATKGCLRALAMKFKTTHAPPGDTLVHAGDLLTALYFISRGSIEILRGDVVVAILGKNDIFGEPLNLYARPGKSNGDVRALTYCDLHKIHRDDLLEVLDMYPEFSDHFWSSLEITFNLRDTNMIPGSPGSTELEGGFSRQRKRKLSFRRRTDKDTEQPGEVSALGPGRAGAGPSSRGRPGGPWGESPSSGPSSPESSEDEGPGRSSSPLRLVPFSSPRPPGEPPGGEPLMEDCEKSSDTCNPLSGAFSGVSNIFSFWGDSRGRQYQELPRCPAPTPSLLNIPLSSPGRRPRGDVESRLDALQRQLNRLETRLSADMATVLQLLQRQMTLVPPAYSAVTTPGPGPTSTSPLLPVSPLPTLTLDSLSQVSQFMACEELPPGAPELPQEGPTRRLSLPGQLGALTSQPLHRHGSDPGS

In order of falling “hERG current change (%, negative = inhibition) at 10uM” value:
1. NC(=O)c1ccc(NC(=O)COC(=O)CCCc2c[nH]c3ccccc23)cc1  55.7%
2. Nn1c(Cc2ccc(Br)cc2)n[nH]c1=S  27.5%
3. O=C(O)C1CC(O)CN1S(=O)(=O)c1cccs1 (stereo not drawn)  25.6%
4. CC(C)(C)c1ccc(COn2ccnc2)cc1  25.6%
5. Cc1ccc(N2C(=O)SC(N(CC(=O)O)c3ccc(C)cc3)C2=O)cc1 (stereo not drawn)  24.2%
6. CSCC[C@H](NC(=O)OC(C)(C)C)C(=O)N/N=C/c1c(C)[nH]c(=O)[nH]c1=O  21.9%
7. CC(=O)Nc1ccc(S(=O)(=O)Nc2ccccc2C(=O)N2CCOCC2)cc1  21.6%
8. COc1ccc(S(=O)(=O)NCCc2cn3cccc(C)c3n2)cc1OC  21.5%
9. Cc1cc(C(=O)Nc2c(F)cc(F)cc2Br)no1  17.9%
10. O=C(CCN1C(=O)/C(=C/c2ccccc2)SC1=S)N[C@@H](CO)Cc1ccccc1  17.8%
11. CC1(C)Cc2c(sc3nc(-c4ccccc4)n(N)c(=O)c23)CO1  17.1%
12. COC(=O)C(Cc1c[nH]c2ccccc12)NC(=O)C1CC1 (stereo not drawn)  16%
13. Cc1c(Cl)cccc1NC(=S)N1CCN(c2ccccn2)CC1  15.5%
14. CCCCCCCCN1[C@@H](CC(=O)O)c2cc(C(F)(F)F)ccc2S1(=O)=O  15.4%
15. O=C(c1ccc(Cl)cc1)N1CCCC(C(=O)N2CCCCC2)C1 (stereo not drawn)  15.3%
16. Cc1cc(Cl)ccc1OCCNC(=S)NC(=O)c1cccnc1  15.1%
17. CSc1nc(C)cc(Oc2ccc(OCC(N)=O)nn2)n1  14.5%
18. O=S1(=O)CCN(Cc2ccc(Cl)cc2)CC1  14.3%
19. CC(C(=O)Nc1ccc(S(=O)(=O)N2CCOCC2)cc1)N1C(=O)C2CC=CCC2C1=O (stereo not drawn)  14.1%
20. CCn1c(SCC(=O)Nc2sccc2C(N)=O)nnc1C1CC1  12.9%
21. CCN=C1SC(CC(=O)NC(N)=O)C(=O)N1CC (stereo not drawn)  12%
22. COc1ccc(-c2nnc(-c3ccc(N(C)C)cc3)o2)cc1  11.1%
23. COc1cccc(C(=O)Nc2ccc3c(c2)n(C)c(=O)n3C)c1  10.9%
24. COC(=O)c1ccc(C(=O)O)nc1  10.8%
25. CNC(=O)c1nc(C)c(C2(C)CC(c3ccccc3)=NO2)s1 (stereo not drawn)  9.3%
26. COCc1cc(=O)[nH]c(-c2csc(C)n2)n1  9.14%
27. O=C(c1nn2c(C(F)(F)F)cc(-c3ccco3)nc2c1Br)N1CCCc2ccccc21  8.87%
28. COc1cc(Cc2nc3ccc(S(=O)(=O)N4CCOCC4)cc3[nH]2)cc(OC)c1OC  8.71%
29. C/C(N)=C(/C#N)C(=O)COC(=O)Cc1coc2cc(C)ccc12  8.22%
30. CCCCNC(=S)N(C)/N=C/c1ccc(OCC(=O)Nc2c(C)cc(C)cc2C)c(OC)c1  7.74%
31. Cc1cccc(CCNC(=O)c2oc3c(C)c(C)ccc3c2C)n1  7.49%
32. CC(=O)N1CCc2cc(S(=O)(=O)NCC(=O)NCc3ccccc3Cl)ccc21  7.17%
33. Cc1c(C#N)c2ccccc2n1CC(=O)N1CCCc2ccccc21  6.75%
34. CC1(C)OC(c2ccccc2)=C/C(=C/C=C2C(=O)NC(=O)NC2=O)O1  6.24%
35. O=C(Nc1ccccc1[N+](=O)[O-])c1cc2ccccc2nc1Cl  6.1%
36. CCN(CC(=O)Nc1ccc(NC(C)=O)cc1)C(=O)c1oc2c(ccc3ccccc32)c1C  5.52%
37. Cc1cc(Cl)ccc1NC(=S)N1CCN(Cc2ccc3c(c2)OCO3)CC1  4.84%
38. CCCN(CC#CCO)CCC  4.82%
39. COc1ccccc1C(=O)Nc1ccc2nc(SCC(=O)N(C)C)sc2c1  4.8%
40. Cc1ccc(-n2cc(S(=O)(=O)c3ccc(C)cc3)[nH]c2=O)cc1  4.72%
41. Cc1cc(NC(=O)CSc2nnc(CNC(=O)c3c(F)cccc3F)o2)no1  4.11%
42. CCOc1ccccc1C1SCC(=O)Nc2c1c(=O)[nH]n2C(CC)CC (stereo not drawn)  3.95%
43. COc1ccc(-c2cc(C(F)(F)F)c(C#N)c(SCC(=O)O)n2)cc1  3.28%
44. CCOC(=O)N1CCC(NC(=O)c2ccc3c(c2)N(CC)CCS3)CC1  2.99%
45. COc1ccc(/C=C(\NC(=O)c2ccc(OCC(C)C)cc2)C(=O)OCc2ccco2)cc1  2.07%
46. CCC(C)(NC(=O)CNC(C)=O)C(=O)NC1CCCCC1 (stereo not drawn)  1.77%
47. Nc1c(S(=O)(=O)c2ccccc2)csc1C(=O)O  1.6%
48. Cc1ccc(S(=O)(=O)CC(=O)N2CCOCC2)cc1  0.772%
49. CC(=O)Nc1ccc(NC(=O)C2CCCN(S(=O)(=O)c3ccc(-n4cnnn4)cc3)C2)cc1 (stereo not drawn)  0.72%
50. Cc1cc(C)n(-c2ccc(C(=O)NC3=NCCS3)cc2)n1  0.574%
51. Cc1ccc(S(=O)(=O)/N=c2\scc(C)n2C)cc1  0.491%
52. N#C/C(=C\C=C\c1ccccc1)C(=O)NCc1cccnc1  0.383%
53. COc1ccc(CCN2C(=O)c3ccncc3C2=O)cc1OC  0.341%
54. Cc1ccc(S(=O)(=O)NNC(=O)C(=O)NNc2ccccn2)cc1  -0.0521%
55. CC1(C)CC(=O)C2=C(C1)NCN(Cc1ccccc1)C2  -0.638%
56. O=C(CN1CCCCCC1)Nc1cc([N+](=O)[O-])ccc1Cl  -0.676%
57. O=C(O)c1sc2ncccc2c1OCc1ccccc1  -1.57%
58. O=C(Oc1cccc2c(=O)[nH]ccc12)c1ccccc1  -2.05%
59. COC(=O)C1(C(F)(F)F)N=C(C(F)(F)F)Nc2ccc(Cl)cc21 (stereo not drawn)  -2.1%
60. O=C(COc1c(CO)cc(Br)cc1CO)NC1CCCc2ccccc21 (stereo not drawn)  -3.01%
61. CCn1c(SCC(=O)NCCc2ccccc2)nc2sc3c(c2c1=O)CCN(C)C3  -3.37%
62. C=CCN=C1SC(C)C(=O)N1S(=O)(=O)c1ccccc1 (stereo not drawn)  -3.77%
63. O=C(Nc1cc(C(F)(F)F)ccc1N1CCOCC1)c1ccccc1F  -4.2%
64. Cn1c2c(c(=O)n(C)c1=O)CN(CCc1ccccc1)CN2  -4.29%
65. CC(C)Sc1nc2c([nH]1)c(=N)ncn2Cc1ccccc1  -5.52%
66. O=S(=O)(NC1CCCCC1Sc1ncccn1)c1ccccc1 (stereo not drawn)  -5.72%
67. CCc1ccc(C(C(=O)NC2CCCC2)N(C(=O)c2csnn2)C2CC2)cc1 (stereo not drawn)  -6.37%
68. Cc1cccc(C2NS(=O)(=O)N=C2N)c1 (stereo not drawn)  -7.14%
69. N#Cc1cc([N+](=O)[O-])c(-n2nnc3ccccc32)c([N+](=O)[O-])c1  -7.38%
70. Cc1ccc2c(c1)N(CC(=O)NCC1CCCO1)C(=O)C(C(C)C)O2 (stereo not drawn)  -7.8%
71. CCN(CC)C(=O)c1[nH]cnc1C(=O)N[C@@H](Cc1ccccc1)C(=O)OC(C)(C)C  -8.27%
72. CCCCNCC(=O)Nc1sc(C)c(C)c1C(=O)OCC  -8.31%
73. CCOC(=O)COc1c(OC)cc(Cl)cc1C1Nc2ccccc2C(=O)N1c1ccc(F)cc1 (stereo not drawn)  -8.95%
74. COC1=CC(=O)C[C@@H](C)[C@]12Oc1c(Cl)c(OC)cc(OC)c1C2=O  -9.99%
75. CCOc1ccc(CCNC(=O)CN2C(=O)NC3(CCCCC3)C2=O)cc1OCC  -11.1%
76. C=CCc1ccc(OCCn2nnc3ccccc32)c(OC)c1  -12.8%
77. COc1ccccc1OCc1nc(-c2cccc([N+](=O)[O-])c2)no1  -13.2%
78. O=C(Nc1ccccn1)c1cccc(S(=O)(=O)N2CCc3ccccc3C2)c1  -15.6%
79. CN(Cc1ccccc1)C(=O)C1CCCN1S(=O)(=O)c1ccc2c(c1)n(C)c(=O)c(=O)n2C (stereo not drawn)  -16.2%
80. O=C(c1cccc(S(=O)(=O)N2CCCC2)c1)N1CCN(c2ccccc2F)CC1  -18.1%
81. COc1ccccc1N1CCN(C(=O)C(Cc2ccccc2)NC(=O)C2CCCCC2)CC1 (stereo not drawn)  -18.3%
82. COc1ccc(-c2nnc3ccc(SCC(=O)N4CCCCCC4)nn23)cc1OC  -22.3%
83. CCOC(=O)C1(Cc2cccc(OC)c2)CCN(Cc2cnc(N)nc2)CC1  -28.2%
84. CN1CCCC1CCNc1ccc2sc3ccccc3c(=O)c2c1 (stereo not drawn)  -34.6%
85. CCCCNC(=O)CCc1c(C)nc2c(c(C)nn2-c2ccccc2)c1C  -36.8%
86. O=C(NCc1nc2ccccc2[nH]1)c1ccc([N+](=O)[O-])cc1  -38.5%
87. CCc1noc(C)c1C(=O)OC(C)C(=O)Nc1cc([N+](=O)[O-])ccc1OC (stereo not drawn)  -53.1%
88. CCn1c(SCc2cccc(C)c2)nnc1-c1ccc(C)cc1  -63.7%
89. COCCOC1CCN(Cc2cn(Cc3ccccc3)nc2-c2cc3ccccc3o2)CC1  -67%
90. CCN1CCc2c(C#N)c(NCc3ccccc3)nc(N(CC)CC)c2C1  -68.5%
